Results are given in words; binding and its absence hold for the method and conditions named. Binding seen in cells or lysates may run through a third protein. Some binding calls cover weakened binding; strength is not graded here.
Legend:
[1] = target: EndoA2-His (aa 1-308) (UniProt Q62419); test: co-IP; EndoA2-His constructs transiently coexpressed with Piezo2 or myc-KIF5B in HEK293 cells; lysates in cold Co-IP RIPA buffer immunoprecipitated with antibodies as indicated in the figure, protein A/G beads, immunoblot
[2] = target: EndoA2-His (aa 1-254) (UniProt Q62419); test: as above
[3] = target: Full-length EndoA2-His (UniProt Q62419); test: as above
[4] = target: Endophilin A2 (mouse (endogenous in DRG)) (UniProt Q62419); test: co-IP; mouse DRG lysates in cold Co-IP RIPA buffer, immunoprecipitated with EndoA2 antibody (overnight, 4 °C) and protein A/G beads, immunoblotted for the partners
[5] = target: Endophilin A2 (mouse (endogenous in DRG)) (UniProt Q62419); test: proximity ligation; Duolink PLA on cultured mouse L4-L6 DRG neurons (for KIF5B/Piezo2: of EndoA2^fl/fl mice), fixed with 4% PFA, permeabilised, two primary antibodies
[6] = target: Endophilin A2 (mouse (endogenous in DRG)) (UniProt Q62419); test: co-IP; mouse DRG lysates in cold Co-IP RIPA buffer, immunoprecipitated with EndoA2 antibody (overnight, 4 °C) and protein A/G beads, immunoblotted for the partners; remark: listed apart in the source

Sequences of proteins named here, by UniProt entry; tags and fusion partners are left off. A change or cut given only in a name is not applied to a line headed by its entry. Residues count along the entry.
UniProt Q62419: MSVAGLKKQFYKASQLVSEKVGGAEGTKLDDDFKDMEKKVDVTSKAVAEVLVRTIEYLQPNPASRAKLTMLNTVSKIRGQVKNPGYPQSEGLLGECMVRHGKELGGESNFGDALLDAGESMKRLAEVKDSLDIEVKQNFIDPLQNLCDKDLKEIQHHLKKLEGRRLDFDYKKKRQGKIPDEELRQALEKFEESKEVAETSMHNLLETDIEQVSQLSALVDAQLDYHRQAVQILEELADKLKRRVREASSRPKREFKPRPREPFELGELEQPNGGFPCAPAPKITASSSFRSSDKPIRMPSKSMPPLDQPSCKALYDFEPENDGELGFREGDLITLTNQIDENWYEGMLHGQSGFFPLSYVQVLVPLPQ
EndoA2-His (aa 1-308): residues 1-308 of Q62419
EndoA2-His (aa 1-254): residues 1-254 of Q62419
UniProt Q8CD54: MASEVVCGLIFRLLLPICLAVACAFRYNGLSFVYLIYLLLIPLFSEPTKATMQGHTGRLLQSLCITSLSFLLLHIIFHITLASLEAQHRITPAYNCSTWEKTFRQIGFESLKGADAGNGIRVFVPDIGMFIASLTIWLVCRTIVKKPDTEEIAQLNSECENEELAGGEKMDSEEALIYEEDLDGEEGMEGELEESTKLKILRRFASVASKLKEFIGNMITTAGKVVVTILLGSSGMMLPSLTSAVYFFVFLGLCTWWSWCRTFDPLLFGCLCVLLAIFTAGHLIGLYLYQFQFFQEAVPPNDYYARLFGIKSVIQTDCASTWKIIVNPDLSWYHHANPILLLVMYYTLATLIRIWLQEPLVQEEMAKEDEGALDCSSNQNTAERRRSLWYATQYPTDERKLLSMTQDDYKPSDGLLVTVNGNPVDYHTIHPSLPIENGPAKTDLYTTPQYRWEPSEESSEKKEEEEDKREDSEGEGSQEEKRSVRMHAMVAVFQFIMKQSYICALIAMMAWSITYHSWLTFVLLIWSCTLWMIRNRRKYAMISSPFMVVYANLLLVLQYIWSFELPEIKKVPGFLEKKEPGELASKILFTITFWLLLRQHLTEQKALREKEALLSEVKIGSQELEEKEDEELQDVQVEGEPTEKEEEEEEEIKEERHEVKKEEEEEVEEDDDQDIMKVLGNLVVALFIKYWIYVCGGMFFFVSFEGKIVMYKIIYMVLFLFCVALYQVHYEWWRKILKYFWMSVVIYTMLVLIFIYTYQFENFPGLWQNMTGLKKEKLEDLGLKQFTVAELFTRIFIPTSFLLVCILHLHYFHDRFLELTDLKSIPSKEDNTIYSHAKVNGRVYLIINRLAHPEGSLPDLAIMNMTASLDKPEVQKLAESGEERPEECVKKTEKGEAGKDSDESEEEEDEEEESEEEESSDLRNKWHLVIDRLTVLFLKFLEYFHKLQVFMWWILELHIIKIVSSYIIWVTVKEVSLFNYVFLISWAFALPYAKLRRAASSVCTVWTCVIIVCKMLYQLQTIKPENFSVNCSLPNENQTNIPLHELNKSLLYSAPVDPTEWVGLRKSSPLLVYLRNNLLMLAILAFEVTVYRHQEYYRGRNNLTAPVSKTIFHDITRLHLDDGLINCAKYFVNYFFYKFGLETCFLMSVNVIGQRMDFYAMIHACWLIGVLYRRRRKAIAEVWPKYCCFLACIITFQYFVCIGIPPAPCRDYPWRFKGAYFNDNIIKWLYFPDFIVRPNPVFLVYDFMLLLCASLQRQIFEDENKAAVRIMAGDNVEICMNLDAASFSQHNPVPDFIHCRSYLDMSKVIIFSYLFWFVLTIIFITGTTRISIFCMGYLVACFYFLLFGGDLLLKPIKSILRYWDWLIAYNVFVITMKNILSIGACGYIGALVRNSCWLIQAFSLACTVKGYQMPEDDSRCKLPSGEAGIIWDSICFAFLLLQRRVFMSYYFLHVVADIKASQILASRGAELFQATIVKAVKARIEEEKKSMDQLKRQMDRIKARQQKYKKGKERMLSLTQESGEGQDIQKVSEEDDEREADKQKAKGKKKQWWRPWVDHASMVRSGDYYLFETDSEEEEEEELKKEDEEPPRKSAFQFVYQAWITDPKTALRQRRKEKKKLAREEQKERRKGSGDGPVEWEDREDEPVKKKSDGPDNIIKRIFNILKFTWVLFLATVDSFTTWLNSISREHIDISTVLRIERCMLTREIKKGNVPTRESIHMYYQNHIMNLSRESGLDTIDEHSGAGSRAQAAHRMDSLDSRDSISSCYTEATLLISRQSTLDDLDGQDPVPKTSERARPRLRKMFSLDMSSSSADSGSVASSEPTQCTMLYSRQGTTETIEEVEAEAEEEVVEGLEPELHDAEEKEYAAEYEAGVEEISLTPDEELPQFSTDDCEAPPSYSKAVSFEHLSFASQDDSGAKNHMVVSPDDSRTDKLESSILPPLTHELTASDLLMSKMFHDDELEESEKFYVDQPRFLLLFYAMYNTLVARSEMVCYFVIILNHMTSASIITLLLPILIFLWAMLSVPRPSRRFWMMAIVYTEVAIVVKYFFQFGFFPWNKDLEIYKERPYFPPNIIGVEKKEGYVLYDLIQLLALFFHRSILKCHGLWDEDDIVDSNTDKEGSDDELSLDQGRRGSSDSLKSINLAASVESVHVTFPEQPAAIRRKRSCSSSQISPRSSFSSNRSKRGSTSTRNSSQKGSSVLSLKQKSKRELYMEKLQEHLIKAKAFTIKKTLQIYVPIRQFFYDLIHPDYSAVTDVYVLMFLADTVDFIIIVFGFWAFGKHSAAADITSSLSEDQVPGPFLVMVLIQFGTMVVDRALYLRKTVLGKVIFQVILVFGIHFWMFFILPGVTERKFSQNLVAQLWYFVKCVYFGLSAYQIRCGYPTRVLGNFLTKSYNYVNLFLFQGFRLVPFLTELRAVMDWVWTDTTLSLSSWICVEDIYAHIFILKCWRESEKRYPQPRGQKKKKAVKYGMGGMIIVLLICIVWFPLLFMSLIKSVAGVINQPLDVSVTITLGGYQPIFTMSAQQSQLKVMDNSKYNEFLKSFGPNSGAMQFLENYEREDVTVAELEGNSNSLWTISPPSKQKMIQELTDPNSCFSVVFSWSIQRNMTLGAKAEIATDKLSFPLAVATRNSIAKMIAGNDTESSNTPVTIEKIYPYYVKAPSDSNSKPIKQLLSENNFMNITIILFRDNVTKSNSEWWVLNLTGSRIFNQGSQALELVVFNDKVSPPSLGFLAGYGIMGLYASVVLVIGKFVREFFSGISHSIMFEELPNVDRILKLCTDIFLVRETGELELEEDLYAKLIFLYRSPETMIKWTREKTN
UniProt P33175: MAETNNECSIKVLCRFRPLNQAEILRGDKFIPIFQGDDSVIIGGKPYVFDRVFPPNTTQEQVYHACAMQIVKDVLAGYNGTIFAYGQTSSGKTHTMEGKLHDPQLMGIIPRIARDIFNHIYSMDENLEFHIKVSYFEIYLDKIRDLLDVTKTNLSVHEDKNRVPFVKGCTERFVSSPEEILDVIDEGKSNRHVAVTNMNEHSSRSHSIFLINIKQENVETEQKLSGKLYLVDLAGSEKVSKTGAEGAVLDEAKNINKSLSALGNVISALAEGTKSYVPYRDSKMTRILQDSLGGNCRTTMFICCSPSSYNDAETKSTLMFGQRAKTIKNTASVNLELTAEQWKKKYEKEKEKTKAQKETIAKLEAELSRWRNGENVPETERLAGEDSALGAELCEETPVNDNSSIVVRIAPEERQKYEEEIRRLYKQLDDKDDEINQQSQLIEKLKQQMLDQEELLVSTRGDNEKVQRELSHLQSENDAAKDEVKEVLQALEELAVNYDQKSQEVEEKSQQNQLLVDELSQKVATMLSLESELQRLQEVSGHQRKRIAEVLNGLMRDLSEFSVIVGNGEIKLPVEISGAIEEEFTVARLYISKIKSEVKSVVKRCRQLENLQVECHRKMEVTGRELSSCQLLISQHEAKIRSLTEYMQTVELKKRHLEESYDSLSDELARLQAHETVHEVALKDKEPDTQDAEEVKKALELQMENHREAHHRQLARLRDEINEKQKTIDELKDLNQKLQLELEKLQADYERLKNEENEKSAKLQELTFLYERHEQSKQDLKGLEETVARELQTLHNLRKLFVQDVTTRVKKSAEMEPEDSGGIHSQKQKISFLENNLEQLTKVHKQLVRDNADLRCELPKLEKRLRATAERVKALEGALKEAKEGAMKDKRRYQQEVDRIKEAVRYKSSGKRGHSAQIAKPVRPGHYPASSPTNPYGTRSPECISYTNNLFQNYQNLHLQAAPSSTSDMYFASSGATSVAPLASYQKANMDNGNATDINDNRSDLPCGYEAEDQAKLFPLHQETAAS
UniProt P28741: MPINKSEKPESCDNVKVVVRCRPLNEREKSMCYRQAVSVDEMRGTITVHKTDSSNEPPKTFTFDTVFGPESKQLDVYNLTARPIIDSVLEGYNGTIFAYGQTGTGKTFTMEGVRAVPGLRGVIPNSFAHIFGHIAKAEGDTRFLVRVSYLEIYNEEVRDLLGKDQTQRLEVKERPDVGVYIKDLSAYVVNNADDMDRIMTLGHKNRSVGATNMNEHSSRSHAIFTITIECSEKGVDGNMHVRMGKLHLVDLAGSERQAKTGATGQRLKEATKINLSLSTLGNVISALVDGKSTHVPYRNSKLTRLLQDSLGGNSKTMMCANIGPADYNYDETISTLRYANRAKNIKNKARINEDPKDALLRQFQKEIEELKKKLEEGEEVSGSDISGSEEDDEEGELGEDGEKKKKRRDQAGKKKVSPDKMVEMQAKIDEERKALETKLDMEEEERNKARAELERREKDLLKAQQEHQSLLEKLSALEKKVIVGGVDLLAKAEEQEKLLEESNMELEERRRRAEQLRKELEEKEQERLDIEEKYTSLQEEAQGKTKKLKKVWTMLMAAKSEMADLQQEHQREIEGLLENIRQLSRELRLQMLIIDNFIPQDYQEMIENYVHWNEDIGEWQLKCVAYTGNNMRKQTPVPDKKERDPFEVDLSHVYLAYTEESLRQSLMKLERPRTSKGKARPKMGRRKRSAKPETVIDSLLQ
UniProt Q61768: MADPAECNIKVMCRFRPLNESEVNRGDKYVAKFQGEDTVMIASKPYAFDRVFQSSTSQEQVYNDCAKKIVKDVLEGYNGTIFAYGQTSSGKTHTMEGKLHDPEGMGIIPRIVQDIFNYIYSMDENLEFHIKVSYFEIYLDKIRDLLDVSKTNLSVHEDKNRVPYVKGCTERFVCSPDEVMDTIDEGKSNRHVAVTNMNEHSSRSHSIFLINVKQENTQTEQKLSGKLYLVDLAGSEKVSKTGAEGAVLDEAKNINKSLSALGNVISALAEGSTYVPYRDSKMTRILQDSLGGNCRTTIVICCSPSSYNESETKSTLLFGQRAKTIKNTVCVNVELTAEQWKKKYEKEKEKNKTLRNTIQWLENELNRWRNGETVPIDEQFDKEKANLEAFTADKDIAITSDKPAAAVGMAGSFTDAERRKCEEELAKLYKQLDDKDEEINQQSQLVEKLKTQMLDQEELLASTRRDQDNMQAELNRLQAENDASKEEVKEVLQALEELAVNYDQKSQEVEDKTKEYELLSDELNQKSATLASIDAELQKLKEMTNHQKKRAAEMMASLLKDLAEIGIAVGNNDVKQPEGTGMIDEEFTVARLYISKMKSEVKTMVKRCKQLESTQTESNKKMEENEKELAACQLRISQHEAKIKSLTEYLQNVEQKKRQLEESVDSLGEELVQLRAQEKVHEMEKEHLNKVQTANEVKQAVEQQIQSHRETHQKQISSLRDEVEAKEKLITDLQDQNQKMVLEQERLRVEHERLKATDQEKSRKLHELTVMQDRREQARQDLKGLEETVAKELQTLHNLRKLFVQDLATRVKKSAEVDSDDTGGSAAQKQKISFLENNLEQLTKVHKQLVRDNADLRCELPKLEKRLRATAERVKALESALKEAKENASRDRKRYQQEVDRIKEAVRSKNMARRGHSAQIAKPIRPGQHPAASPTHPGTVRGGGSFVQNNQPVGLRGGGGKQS

Piezo2 (plasmid, cloned from mouse DRG) (from UniProt Q8CD54 1-2822)
binding [1]: no binding | binding [2]: no binding | binding [3]: binds

KIF5A (from UniProt P33175 1-1027)
binding [4]: binds weakly

Piezo2 (from UniProt Q8CD54 1-2822)
binding [5]: binds | binding [4]: binds

KIF3A (from UniProt P28741 1-701)
binding [4]: binds weakly

myc-KIF5B (from UniProt Q61768 1-963)
binding [1]: binds | binding [2]: binds | binding [3]: binds

kinesin family member 5B (from UniProt Q61768 1-963)
binding [5]: binds | binding [4]: binds

B1: KIF3B (protein, UniProt Q61771 1-747)
chain: MSKLKSSESVRVVVRCRPMNGKEKAASYDKVVDVDVKLGQVSVKNPKGTSHEMPKTFTFDAVYDWNAKQFELYDETFRPLVDSVLQGFNGTIFAYGQTGTGKTYTMEGVRGDPEKRGVIPNSFDHIFTHISRSQNQQYLVRASYLEIYQEEIRDLLSKDQTKRLELKERPDTGVYVKDLSSFVTKSVKEIEHVMNVGNQNRSVGATNMNEHSSRSHAIFVITIECSEVGLDGENHIRVGKLNLVDLAGSERQAKTGAQGERLKEATKINLSLSALGNVISALVDGKSTHIPYRDSKLTRLLQDSLGGNAKTVMVANVGPASYNVEETLTTLRYANRAKNIKNKPRVNEDPKDALLREFQEEIARLKAQLEKRSIGRRKRREKRREGGGSGGGGEEEEEEGEEGEEDGDDKDDYWREQQEKLEIEKRAIVEDHSLVAEEKMRLLKEKEKKMEDLRREKDAAEMLGAKIKAMESKLLVGGKNIVDHTNEQQKILEQKRQEIAEQKRREREIQQQMESRDEETLELKETYTSLQQEVDIKTKKLKKLFSKLQAVKAEIHDLQEEHIKERQELEQTQNELTRELKLKHLIIENFIPLEEKNKIMNRSFFDDEEDHWKLHPITRLENQQMMKRPVSAVGYKRPLSQHARMSMMIRPEPRYRAENIMLLELDMPSRTTRDYEGPAISPKVQAALDAALQDEDEIQVDASSFESTASRKPKARPKSGRKSGSSSSSSGNPASQFYPQSRGLVPK
binding [6]: binds weakly

B2: TACAN/Tmem120a (protein, UniProt Q8C1E7 1-343)
chain: MQSPPPDPLGDCLRNWEDLQQDFQGIQETHRLYRLKLEELTKLQANCTNSITRQKKRLQELALVLKKCRPSLPSESMEAAQELENQMKERQGLFFDMEAYLPKKNGLYLSLVLGNVNVTLLSKQAKFAYKDEYEKFKLYLTIILIVISFTCRFLLNSRVTDAAFNFLLVWYYCTLTIRESILINNGSRIKGWWVFHHYVSTFLSGVMLTWPDGLMYQKFRNQFLSFSMYQSFVQFLQYYYQSGCLYRLRALGERHTMDLTVEGFQSWMWRGLTFLLPFLFFGHFWQLFNALTLFNLARDPECKEWQVLMCGFPFLLLFLGNFFTTLRVVHQKFHSQQHGNKKD
binding [6]: binds weakly

B3: Acid sensing ion channel 3 (protein, UniProt Q6X1Y6 1-530)
chain: MKPPSGLEEAQRRQASDIRVFANSCTMHGLGHIFGPGGLTLRRGLWATAVLLSLAAFLYQVAERVRYYGEFHHKTTLDERESHQLTFPAVTLCNINPLRRSRLTPNDLHWAGTALLGLDPAEHAAYLRALGQPPAPPGFMPSPTFDMAQLYARAGHSLEDMLLDCRYRGQPCGPENFTVIFTRMGQCYTFNSGAQGAELLTTPKGGAGNGLEIMLDVQQEEYLPIWKDMEETPFEVGIRVQIHGQEEPPAIDQLGFGAAPGHQTFVSCQQQQLSFLPPPWGDCNTASVDPDFDPEPSDPLGSPSSSPPYSLIGCRLACESRYVARKCGCRMMHMPGNSPVCSPQQYKDCASPALDAMLRKDTCVCPNPCATTRYAKELSMVRIPSRASARYLARKYNRSETYITENVLVLDIFFEALNYEAVEQKAAYEVSELLGDIGGQMGLFIGASLLTILEILDYLCEVFQDRVLGYFWNRRSSQRRSGNTLLQEELNGHRTHVPHLSLGPRPPTAPSAVTKTLAASHRTCYLVTRL
binding [6]: binds weakly
